Source: the supplement of paper PMC12355420
Structures can show the parent of a compound that is named as a salt. This is one part of the list. Rule as the data show it: active = 0.5 or less and inactive = the rest. Most values come without repeats; read them as rough.

test system: HeLa VPS33A R498W KI + HA-SDC1-FLAG; experiment: relative GAG core protein HA-SDC1 amount per cell number vs DMSO (fraction of DMSO); higher = more SDC1 (GAG core protein); conditions: 50 µM; 24 h;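 also: HA-SDC1 level read out by In-Cell Western staining with an anti-HA antibody against the N-terminal tag, screening FDA-approved library drugs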

SMILES | relative GAG core protein HA-SDC1 amount per cell number
COc1ccc(C=O)cc1 [p-Anisaldehyde] | inactive: 0.817
Cc1cc(O)ccc1Cl [Chlorocresol] | inactive: 1.2
CN[C@H]1[C@H](O)[C@H](O[C@@H]2[C@@H](O)[C@H](O[C@H]3O[C@H](C(C)O)[C@@H](O)[C@H](O)[C@H]3N)[C@@H](N)C[C@H]2N)OC[C@@]1(C)O (stereo partly specified) [Geneticin, G-418 Sulfate] | inactive: 1.33
N.N.[Cl][Pt][Cl] [Cisplatin] | inactive: 0.563
CCCC[N+]1(C)[C@@H]2C[C@@H](OC(=O)[C@H](CO)c3ccccc3)C[C@H]1[C@@H]1O[C@@H]12 (stereo partly specified) [Scopolamine butylbromide] | inactive: 0.584
Cc1ccccc1O [o-Cresol] | inactive: 0.894
COC(=O)C1=CCCN(C)C1 [Arecoline hydrobromide] | inactive: 0.789
CNC1CC(N)C(O)C(OC2OC(CO)C(O)C3OC4(OC(C(N)CO)C(O)C(O)C4O)OC23)C1O (stereo unspecified) [Hygromycin B] | inactive: 1.12
CCN1CC2(OC(=O)c3ccccc3NC(C)=O)CCC(OC)C34C1C(CC23)C1(O)CC(OC)C2CC4C1(O)C2OC (stereo unspecified) [Lannaconitine] | inactive: 0.589
CCC1(c2cccc(O)c2)CCCCN(C)C1 (stereo unspecified) [Meptazinol HCl] | inactive: 0.952
Cc1c(N)nc(C(CC(N)=O)NCC(N)C(N)=O)nc1C(=O)NC(C(=O)NC(C)C(O)C(C)C(=O)NC(C(=O)NCCc1nc(-c2nc(C(=O)NCCC[S+](C)C)cs2)cs1)C(C)O)C(O[C@@H]1O[C@@H](CO)[C@@H](O)[C@H](O)[C@@H]1O[C@H]1O[C@H](CO)[C@@H](O)[C@H](OC(N)=O)[C@@H]1O)c1cnc[nH]1 (stereo partly specified) [Bleomycin Sulfate] | inactive: 1.25
Cc1cccc(C)c1NC(=O)CN1CCCC1=O [Nefiracetam] | inactive: 1.24
O=C([O-])C(Cl)Cl.[Na+] | inactive: 0.856
CC(O)(CS(=O)(=O)c1ccc(F)cc1)C(=O)Nc1ccc(C#N)c(C(F)(F)F)c1 (stereo unspecified) [Bicalutamide] | inactive: 1.22

test system: HeLa VPS33A KO + NLuc-VPS33A R498W; experiment: relative mutant VPS33A R498W amount (NanoLuc luminescence) vs DMSO (fraction of DMSO); HeLa model of a glycosaminoglycan (GAG) storage disease; KI is knock-in and KO knock-out; SDC1 is syndecan 1; higher = higher mutant VPS33A level; conditions: 50 µM; 24 h;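 also: screen of an FDA-approved drug library, NanoLuc luminescence read after lysing the treated cells, taken as a measure of mutant VPS33A protein stability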

SMILES | relative mutant VPS33A R498W amount
C[C@@H]1CC[C@H]2[C@@H](C)C(=O)O[C@@H]3O[C@@]4(C)CC[C@@H]1[C@]32OO4 [Artemisinine] | 0.974
CCN(C)C(=O)Oc1cccc([C@H](C)N(C)C)c1 [Rivastigmine Tartrate] | 0.808
NCC(O)c1ccc(O)cc1 (racemic) [(+,-)-Octopamine HCl] | 1.33
O=C(O[C@H]1C[N+]2(CCCOc3ccccc3)CCC1CC2)C(O)(c1cccs1)c1cccs1 [Aclidinium Bromide] | 1.13
C[C@]12CCC(=O)C=C1C=C[C@@H]1[C@@H]2CC[C@@]2(C)[C@H]1CC[C@@]2(O)CCC(=O)O [Potassium Canrenoate] | 0.759
CC(NC(C)(C)C)C(=O)c1cccc(Cl)c1 (stereo unspecified) [Bupropion hydrochloride] | 0.968
O=P1(N(CCCl)CCCl)NCCCO1 (stereo unspecified) [Cyclophosphamide monohydrate] | 1.24
CC1C(=O)OC2C(O)C34C5OC(=O)C3(OC3OC(=O)C(O)C34C(C(C)(C)C)C5O)C12O (stereo unspecified) [Ginkgolide C] | 1.16
CN(C)Cc1c[nH]c2ccccc12 [Gramine] | 0.79
Cn1c(COP(=O)(NCCBr)NCCBr)cnc1[N+](=O)[O-] | 1.25
NCCCNCCSP(=O)(O)O [Amifostine] | 0.979
CN(C)C(=O)Oc1cccc([N+](C)(C)C)c1 [Neostigmine Bromide] | 1.17
CC(=O)O[C@H]1C[C@@H]2CC[C@@H]3[C@H](CC[C@@]4(C)[C@H]3C[C@H]([N+]3(C)CCCCC3)[C@@H]4OC(C)=O)[C@@]2(C)C[C@@H]1[N+]1(C)CCCCC1 [Pancuronium dibromide] | 1.17
CC(C)C[C@H]1C(=O)N2CCC[C@H]2[C@]2(O)O[C@](NC(=O)[C@@H]3C=C4c5cccc6[nH]c(Br)c(c56)C[C@H]4N(C)C3)(C(C)C)C(=O)N12 [Bromocriptine mesylate] | 0.481
Nc1ccncc1 [4-Aminopyridine] | 1.01
C[N+]1(C)CCCC(OC(=O)C(O)(c2ccccc2)c2ccccc2)C1 (stereo unspecified) [Mepenzolate Bromide] | 1.04
C=C1C[C@@H]2[C@H](CC[C@]3(C)C(=O)CC[C@@H]23)[C@@]2(C)C=CC(=O)C=C12 [Exemestane] | 0.873
